# In PubChem BioAssay AID504333 (National Center for Advancing Translational Sciences (NCATS), 2011):
# Hit rate of the full screen: of about 360,000 compounds, about 16,000 (4.4%) were called active. This list was built around the results that the source calls inconclusive (neither active nor inactive); the mix of calls is not that of the screen. The call rests on the fitted dose curve; in most records, active means well fitted inhibition curve with a large enough effect; inconclusive means small, poorly fitted or top-dose-only effect; inactive means no such curve, though single readings can be large or run the other way. Potencies of inconclusive entries are doubtful fits and often do not repeat.
# Target: Bromodomain adjacent to zinc finger domain protein 2B (Homo sapiens) (UniProt Q9UIF8)
# Experiment: qHTS Assay for Inhibitors of BAZ2B; further: nearly all actives have a fitted effect of over 60% in size
# Conditions: AlphaScreen BAZ2B-H3K14Ac peptide displacement; activity change, negative = inhibition: at 114 µM (top of the series)
# Method in brief: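 AlphaScreen luminescence quantifies BAZ2B engagement of H3K14Ac peptide; the protein and biotinylated peptide are both at 50 nM final, buffer PBS pH 7.4 with 0.01% Tween-20, all steps at room temperature.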
# On the % scale 0 is the no-effect control and ±100 the full control effect; potency means the concentration at half of the fitted maximal effect; tags describe the fitted curve by direction and shape.
# UniProt Q9UIF8, sequence (Q9UIF8 whole entry, looked up, the tested form may be a part): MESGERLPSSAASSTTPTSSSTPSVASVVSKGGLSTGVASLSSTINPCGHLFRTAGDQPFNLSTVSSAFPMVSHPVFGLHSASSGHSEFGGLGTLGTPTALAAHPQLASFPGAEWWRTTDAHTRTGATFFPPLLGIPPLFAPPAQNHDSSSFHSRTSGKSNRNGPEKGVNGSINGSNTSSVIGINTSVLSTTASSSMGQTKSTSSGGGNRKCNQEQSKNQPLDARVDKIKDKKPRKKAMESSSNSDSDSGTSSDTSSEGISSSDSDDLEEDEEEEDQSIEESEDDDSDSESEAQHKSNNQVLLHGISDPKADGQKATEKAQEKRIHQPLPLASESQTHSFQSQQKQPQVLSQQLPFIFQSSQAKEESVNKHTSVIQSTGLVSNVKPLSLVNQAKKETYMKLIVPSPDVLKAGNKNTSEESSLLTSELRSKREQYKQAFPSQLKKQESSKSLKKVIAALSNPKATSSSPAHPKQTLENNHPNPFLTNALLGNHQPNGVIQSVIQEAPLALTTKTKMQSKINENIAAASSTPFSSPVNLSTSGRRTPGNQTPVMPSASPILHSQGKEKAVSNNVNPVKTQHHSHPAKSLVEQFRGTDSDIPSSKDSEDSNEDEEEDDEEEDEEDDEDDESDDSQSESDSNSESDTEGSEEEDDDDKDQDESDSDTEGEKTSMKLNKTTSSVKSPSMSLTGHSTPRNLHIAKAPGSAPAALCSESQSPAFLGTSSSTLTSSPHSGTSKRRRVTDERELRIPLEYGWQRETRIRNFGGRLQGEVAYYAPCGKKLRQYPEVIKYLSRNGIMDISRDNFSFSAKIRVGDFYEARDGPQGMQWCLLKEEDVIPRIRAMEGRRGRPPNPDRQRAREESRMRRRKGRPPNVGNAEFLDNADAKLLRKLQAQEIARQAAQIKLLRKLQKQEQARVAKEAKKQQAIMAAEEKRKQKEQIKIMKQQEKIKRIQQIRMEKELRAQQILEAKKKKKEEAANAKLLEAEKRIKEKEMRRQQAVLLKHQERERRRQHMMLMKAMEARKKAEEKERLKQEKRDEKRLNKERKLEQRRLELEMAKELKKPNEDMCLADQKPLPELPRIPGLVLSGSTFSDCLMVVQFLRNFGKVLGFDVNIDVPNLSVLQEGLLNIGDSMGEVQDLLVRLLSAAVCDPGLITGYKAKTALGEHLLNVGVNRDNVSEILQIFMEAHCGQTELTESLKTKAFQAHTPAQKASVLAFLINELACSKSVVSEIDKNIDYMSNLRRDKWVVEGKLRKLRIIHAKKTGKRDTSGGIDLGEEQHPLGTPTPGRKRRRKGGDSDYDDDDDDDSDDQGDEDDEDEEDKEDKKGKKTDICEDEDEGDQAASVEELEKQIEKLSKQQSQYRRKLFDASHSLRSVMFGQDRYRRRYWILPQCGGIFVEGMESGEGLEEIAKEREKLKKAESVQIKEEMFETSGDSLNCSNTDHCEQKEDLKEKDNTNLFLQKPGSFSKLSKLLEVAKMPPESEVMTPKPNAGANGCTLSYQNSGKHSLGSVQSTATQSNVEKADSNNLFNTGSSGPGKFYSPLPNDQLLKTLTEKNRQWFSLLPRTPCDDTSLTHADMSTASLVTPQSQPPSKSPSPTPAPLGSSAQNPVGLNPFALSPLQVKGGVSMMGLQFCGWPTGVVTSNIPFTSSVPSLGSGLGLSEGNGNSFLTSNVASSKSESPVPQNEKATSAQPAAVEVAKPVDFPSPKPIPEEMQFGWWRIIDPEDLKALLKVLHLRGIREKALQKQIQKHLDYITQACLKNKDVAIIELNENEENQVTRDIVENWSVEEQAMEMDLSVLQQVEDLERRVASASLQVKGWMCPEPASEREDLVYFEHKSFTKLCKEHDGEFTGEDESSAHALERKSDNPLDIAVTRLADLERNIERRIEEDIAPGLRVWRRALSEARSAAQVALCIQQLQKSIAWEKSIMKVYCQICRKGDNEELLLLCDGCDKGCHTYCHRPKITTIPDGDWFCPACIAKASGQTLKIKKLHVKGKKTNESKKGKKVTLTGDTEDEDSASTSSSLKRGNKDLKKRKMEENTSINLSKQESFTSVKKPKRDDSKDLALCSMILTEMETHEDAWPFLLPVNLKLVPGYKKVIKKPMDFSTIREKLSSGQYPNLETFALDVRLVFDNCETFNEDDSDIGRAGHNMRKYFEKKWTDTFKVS
Structure (SMILES),Potency,"activity change, negative = inhibition"
COc1ccc(-c2csc(N3CCN(Cc4ccc5c(c4)OCO5)CC3)n2)cc1,"inconclusive: 44.7 µM [inhibitor, partial curve]",
CCc1ccc(C(c2ccccc2)c2c[nH]c3ccc(C)cc23)s1 (configuration not stated),"inconclusive: 35.5 µM [inhibitor, partial curve]",
O=[N+]([O-])c1cc2oc3c(c2c(C=NCc2ccncc2)c1O)CCCC3,active: 35.5 µM,
CC1=NN(c2ccccc2)C(=O)/C1=C/c1c(O)n(-c2ccc(F)cc2)[nH]c1=O,active: 39.8 µM,
CC1CCN(c2ccc(C(=O)Nc3ccc4c(c3)OCO4)cc2[N+](=O)[O-])CC1,"inconclusive: 28.2 µM [inhibitor, full curve]",
Clc1ccccc1CSc1nnc(-c2ccco2)c(-c2ccco2)n1,active: 14.1 µM,
CN(C)C(CNC(=O)c1ccc(OCc2cn3ccccc3n2)cc1)c1ccco1 (configuration not stated),"inconclusive: 89.1 µM [inhibitor, single point]",
COc1cccc(NC(=O)CN(C)C(C)C(=O)Nc2ccc(C(C)=O)cc2)c1 (configuration not stated),,inactive: -18.9%
CCN1CCN(c2ncc3c(n2)CCN(Cc2sccc2C)C3)CC1,"inconclusive: 56.2 µM [inhibitor, partial curve]",
CCOc1ccc(Nc2nc(C)c(NC(=O)c3ccc(C)cc3)c(Nc3ccc(OCC)cc3)n2)cc1,"inconclusive: 56.2 µM [inhibitor, partial curve]",
CCCN1CCN(CCCNC(=O)c2ccc3c(c2)NC(=O)c2ccccc2S3)CC1,,inactive: -8.37% [at 57.1 µM]
O=C(COC(=O)c1ccc(-c2ccc([N+](=O)[O-])cc2)o1)NC(=O)NC12CC3CC(CC(C3)C1)C2,"inconclusive: 44.7 µM [inhibitor, partial curve]",
O=S(=O)(c1cc(Cl)cc(Cl)c1O)N1CCC2(CC1)OCCO2,,inactive: -2.56%
NS(=O)(=O)c1ccc(N=Nc2ccc(=O)[nH]c2O)cc1,active: 44.7 µM,
O=C(N=C1c2ccccc2CN1c1cccc(Cl)c1)c1cccnc1,,inactive: -8.11%
CC(C)C(=O)NN(C(=O)C(C)C)c1nc2ccccc2s1,,inactive: -2.63%
COc1ccc(-c2csc3nc(C)nc(N4CCC(C)CC4)c23)cc1OC,"inconclusive: 35.5 µM [inhibitor, partial curve]",
Nc1c(/C=C2/C=CC(=O)C(O)=C2)c(=O)nc2sc(CC(=O)N3CCCC3)nn12,active: 20 µM,
COc1cccc(-n2ccnc2SCC(=O)Nc2ccc(Cl)c(Cl)c2)c1,"inconclusive: 2.24 µM [inhibitor, single point]",
COc1ccc(NC(=O)Cc2ccc(Cl)c(Cl)c2)cn1,"inconclusive: 89.1 µM [inhibitor, single point]",
CCOC(=O)c1c(C)[nH]c(C)c1S(=O)(=O)NCCc1sccc1C,"inconclusive: 39.8 µM [inhibitor, partial curve]",
CCOC(=O)c1c(C)oc2c1c(C=NCc1ccccn1)c(O)c1ccccc12,"inconclusive: 39.8 µM [inhibitor, partial curve]",
Nc1cc(S(=O)(=O)Nc2ccccc2Cl)ccc1N1CCCC1,"inconclusive: 39.8 µM [inhibitor, partial curve]",
Cc1ccc(C(=O)NNC2=NCCC2)cc1,"inconclusive: 89.1 µM [inhibitor, single point]",

Structure (SMILES),Potency,"activity change, negative = inhibition"
O=C(Nc1nc(-c2ccccn2)cs1)c1ccc(-c2ccccc2F)o1,active: 79.4 µM,
Cc1ccc(C(=O)Nc2nc(N)n(-c3ccccc3)n2)cc1,"inconclusive: 89.1 µM [inhibitor, single point]",
CC(CCc1ccccc1)NC(=O)Cn1c(=O)nc(-c2ccccc2F)c2cc(Cl)ccc21 (configuration not stated),,inactive: -10.4%
O=C(Nc1ccc(Br)c2ccccc12)c1ccc2ccccc2c1O,active: 28.2 µM,
COc1cccc(CNC(=O)Cc2ccc(NC(=O)C3=C(C)OCCS3)cc2)c1,active: 50.1 µM,
Cc1ccn(CCC(=O)Nc2ccc3c(c2)OCO3)n1,"inconclusive: 79.4 µM [inhibitor, single point]",
Cc1ccc(N2C(=O)C(CN3CCCCC3)C2c2ccccc2)cc1 (configuration not stated),,inactive: -7.44%
N/C(=N\OC(=O)c1ccco1)c1ccccn1,"inconclusive: 70.8 µM [inhibitor, single point]",
Cc1ccc(/C=N/NC(=O)C2(O)c3ccccc3-c3ccccc32)o1,,inactive: -31%
CC(O)CN(CCC(N)=O)CCC(N)=O (configuration not stated),active: 56.2 µM,
Cc1cc(COc2ccccc2)oc1C(=O)O,"inconclusive: 89.1 µM [inhibitor, single point]",
O=C(O)C1=C[C@H](c2cccs2)C[C@H](OCCCCO)O1,active: 79.4 µM,
Cc1ccc(NC(=O)c2cc3nc(-c4ccc5c(c4)OCO5)cc(C(F)(F)F)n3n2)cc1Cl,,inactive: -14.6%
C/C(=N\NC(=O)c1cc(O)ccc1O)c1cccc(NC(=O)c2ccc(Cl)cc2)c1,"inconclusive: 31.6 µM [inhibitor, partial curve]",
COc1ccccc1N1CCN(C(=O)CCc2ccc(S(=O)(=O)NCC(C)C)cc2)CC1,"inconclusive: 89.1 µM [inhibitor, single point]",
O=c1c2ccccc2nc(-c2ccc(Br)cc2)n1Cc1ccccc1,"inconclusive: 70.8 µM [inhibitor, single point]",
CCOC(=O)C1=C(Cn2cnc3ccccc32)NC(=O)NC1c1ccc(OC)cc1 (configuration not stated),active: 56.2 µM,
O=C(C1=C(O)C(=O)N(c2ncccn2)C1c1cccs1)c1ccco1 (configuration not stated),"inconclusive: 89.1 µM [inhibitor, single point]",
COc1cccc(CNC(=O)CCc2c(C)nc3c(c2C)c(=O)n(C)c(=O)n3C)c1,"inconclusive: 79.4 µM [inhibitor, single point]",
CC(=O)Nc1ccc(S(=O)(=O)N(C)CC(=O)OCC(=O)NCc2ccco2)cc1,,inactive: -0.607%
O=C(COC(=O)c1ccccn1)c1ccc([N+](=O)[O-])cc1,active: 11.2 µM,
COc1ccc(Nc2ncnc3c2c(-c2ccccc2)cn3-c2ccc(C)c(Cl)c2)cc1OC,"inconclusive: 20 µM [inhibitor, full curve]",
CCC(C)NCCOCCOc1ccc(C)cc1Br (configuration not stated),active: 56.2 µM,
CCCS(=O)(=O)N1CCC(C(=O)NCCCN(CC)c2cccc(C)c2)CC1,,inactive: 12.4%

Structure (SMILES),Potency,"activity change, negative = inhibition"
CN(Cc1cnccn1)C(=O)CC1C(=O)NCCN1Cc1cccc(Oc2ccccc2)c1 (configuration not stated),"inconclusive: 89.1 µM [inhibitor, single point]",
O=C(/C=C/c1ccc(Br)cc1)NC(=O)c1ccccc1O,"inconclusive: 56.2 µM [inhibitor, partial curve]",
Cc1ccc2nc(-c3cc(N)cc(N)c3)oc2c1,active: 50.1 µM,
CC1=C(C(N)=O)C(c2ccco2)C(C(N)=O)=C(C)N1,"inconclusive: 79.4 µM [inhibitor, partial curve]",
CCn1c(CCCOc2ccc(Cl)cc2Cl)nnc1SCC(=O)Nc1cccc(F)c1,,inactive: -0.558%
CCc1ccc(S(=O)(=O)N2CCCC(N3CCN(c4ccc(OC)cc4)CC3)C2)cc1 (configuration not stated),active: 14.1 µM,
CCOC(=O)Cc1ccc(NC(=O)n2ncc3cc(Cl)ccc32)cc1,"inconclusive: 89.1 µM [inhibitor, single point]",
CC1OC(OCC2OC(Oc3c(-c4ccc(O)cc4)oc4cc(O)cc(O)c4c3=O)C(O)C(O)C2O)C(O)C(O)C1O (configuration not stated),"inconclusive: 70.8 µM [inhibitor, partial curve]",
COc1ccc(OCc2ccc(-c3nc(C#N)c(NCc4ccccc4)o3)o2)cc1,"inconclusive: 10 µM [inhibitor, full curve]",
Cc1cccc(NC(=O)NNC(=O)c2sccc2-n2cccc2)c1,"inconclusive: 79.4 µM [inhibitor, single point]",
CCOC(=O)CNC(=O)CSc1nnc(-c2ccncc2)n1-c1ccc(Cl)cc1,,inactive: 4.97%
CCOc1cc(CN2CCN(C(=O)c3cccc4ccccc34)CC2)ccc1OC,active: 50.1 µM,
O=C(CSc1nnc(Cc2cccs2)n1Cc1ccco1)Nc1ccc(Cl)cc1Cl,"inconclusive: 70.8 µM [inhibitor, single point]",
Cc1ccc(NC(=O)c2nc[nH]c2C(=O)N2CCOCC2)c(C(=O)c2ccccc2)c1,"inconclusive: 89.1 µM [inhibitor, single point]",
Oc1ccc(N2CCN(Cc3cc4c(cc3Br)OCCO4)CC2)cc1,active: 39.8 µM,
CCOC(=O)Nc1ccc2c(c1)N(C(=O)CCN1CCN3CCCC3C1)c1ccccc1CC2 (configuration not stated),"inconclusive: 89.1 µM [inhibitor, single point]",
Cc1ccc(C)n1-n1cnc2sc(-c3ccccc3)cc2c1=O,,inactive: -30.4%
CC(Oc1ccc(Cl)cc1Cl)C(=O)NNC(=O)[C@@H]1CCCC[C@@H]1C(=O)O (some centres not stated),"inconclusive: 70.8 µM [inhibitor, single point]",
Cc1ccc2nc(-c3cccc(-c4cccc(Cl)c4)c3)c(NCc3ccccc3)n2c1,"inconclusive: 39.8 µM [inhibitor, partial curve]",
CCc1nnc(NC(=O)CCn2cnc3ccccc3c2=O)s1,,inactive: -18.8%
C[C@@]12CCC=C[C@H]1[C@H](c1ccc3ccccc3c1Br)N(Cc1ccccc1)C2=O,"inconclusive: 79.4 µM [inhibitor, single point]",
Cc1ccc(C(=O)Nc2ccc(CN3CCS(=O)(=O)CC3)cc2)cc1C,,inactive: -16%
Cc1oc2c(c1C(=O)N1CCC(C)CC1)C(=O)c1ccccc1C2=O,"inconclusive: 79.4 µM [inhibitor, single point]",
CCSc1nc(=S)n(-c2ccccc2)c(C)c1C(C)=O,"inconclusive: 35.5 µM [inhibitor, single point]",
